Data on two molecules can be found in patent publication US20250277006A1 (CYTIVA BIOPROCESS R AND D, published 2025).

The assay concerns the target T1, Fc fragment from adalimumab.
T1 construct: also called adalimumab Fc fragment
Description: SPR; ligand on CM5; max response at 800 nM, rounded to 50 Ru. For orientation: SPR reads the build-up and loss of mass on a sensor chip optically.

B1: ZGE0214 (domain E with A/R/I at positions 33/40/51) (designed binder)
chain: AQHDEAQQNAFYQVLNMPNLNADQRNGFIQALKDDPSRSANVLGEAQKINDSQAPK
As for B1, the “max response (Ru)” value came to 1650 Ru.

B2: ZGE0234 (domain E with A/G/R at positions 33/40/51) (designed binder)
chain: AQHDEAQQNAFYQVLNMPNLNADQRNGFIQALKDDPSGSANVLGEAQKRNDSQAPK
On to B2, for which the “max response (Ru)” value amounted to 1100 Ru.
